According to patent EP4603105A1, “PHARMACEUTICAL COMPOSITION CONTAINING CYCLIC COMPOUND HAVING SELECTIVE KRAS INHIBITORY EFFECT AGAINST HRAS AND NRAS” (CHUGAI SEIYAKU KABUSHIKI KAISHA, priority 2022, dated 2024):
pKd: −log10 of the molar value. At least one structure is not confirmed: it was looked up by name or label, or the drawing left a doubt. Where a SMILES comes first, the peptide text is derived from it. Bridges are numbered along the chain shown (N, C = ends). [ ]: non-standard residue; d: D form. The star is where a group is joined. hPhe(3-Cl-4-CF3) = N[C@@H](CCc1ccc(C(F)(F)F)c(Cl)c1)C(=O)O; NPrPhe(4-CF3) = CCCN[C@@H](Cc1ccc(C(F)(F)F)cc1)C(=O)O; 3Oxa8azabicyclo(3.2.1)octane = C1CC2COCC1N2*; NMeGly(cPent) = CN[C@H](C(=O)O)C1CCCC1; NMeD = CN[C@@H](CC(=O)O)C(=O)O; NMeL = CN[C@@H](CC(C)C)C(=O)O; Ac5c = NC1(C(=O)O)CCCC1; Sar = CNCC(=O)O

Target: GDP-bound KRAS wild-type protein (Homo sapiens, UniProt P01116)
Sequence (P01116 1-188 isoform P01116-2): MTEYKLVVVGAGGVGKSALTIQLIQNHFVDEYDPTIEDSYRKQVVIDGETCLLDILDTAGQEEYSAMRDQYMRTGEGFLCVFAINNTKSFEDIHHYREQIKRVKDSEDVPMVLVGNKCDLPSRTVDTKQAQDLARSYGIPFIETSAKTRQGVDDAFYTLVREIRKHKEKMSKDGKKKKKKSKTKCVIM
Assay: Binding to KRAS by surface plasmon resonance (SPR), dissociation constant KD
Description: Surface plasmon resonance was used to analyze the binding affinity of compounds for KRAS, NRAS, and HRAS. The apparatus used was Biacore 8K, 8K+, or T200 (GE Healthcare), and the running buffer used was HBS (10 mM HEPES-NaOH, 150 mM NaCl, pH 7.4) containing 1 mM DTT, 10 mM MgCl2, 0.01% Tween 20, 10 µM GDP, and 4% DMSO.
Biotinylated Avi-tag fusion KRAS, NRAS, and HRAS proteins were expressed in E. coli BL21 (DE3) strains, and after cells were homogenized, they were purified using Streptavidin Mutein Matrix and Superdex 75. After purification, GDP-loaded KRAS, NRAS, and HRAS proteins were immobilized on the surface of Sensor Chip CAP (Cytiva) coated with Biotin CAPture Reagent in an immobilization amount of about 100 to 300 RU. Binding of each compound was evaluated by the Single Cycle Kinetics method, and a running buffer or a compound solution was added to the RAS protein non-immobilized surface and the immobilized surface to obtain a binding response. The flow rate was set to 100 µL/min, and in the compound-adding cycle, compound solutions having different concentrations were intermittently added for 75 seconds each, starting from a low concentration. […] In the blank cycle, a running buffer was intermittently added and not the compound solution. The Biotin CAPture Reagent and RAS proteins were immobilized for each cycle, and at the end of each cycle, the sensor chip was regenerated by the regeneration solution appended to the Biotin CAPture Kit (Cytiva). Measurement was carried out at 30°C.
The resulting sensorgram was subjected to curve fitting based on a 1:1 binding model on Biacore Insight Evaluation Software or T200 Evaluation Software, and thereby the dissociation constant KD of each compound with respect to KRAS, NRAS, and HRAS was determined. […] Blank indicates a compound from which the KD value with respect to NRAS or HRAS was not obtained.

[1] = Single Cycle Kinetics, 1:1 binding model

Row | SMILES | pKd [1] | pKd (1:1 binding model) | other results
1 | CCC[C@H]1C(=O)N[C@@H]([C@@H](C)CC)C(=O)N(C)CC(=O)N(C)[C@H]2C/C=C\CCN(C2=O)[C@@H](Cc2ccc(C(F)(F)F)cc2)C(=O)N(C)CC(=O)N[C@@H](CCc2cc(F)c(C(F)(F)F)c(F)c2)C(=O)N2C[C@H](OCC)C[C@H]2C(=O)NC2(CCC2)C(=O)N(C)[C@@H](C2CCCC2)C(=O)N(C)[C@H](C(=O)N2CC3CCC(C2)O3)CC(=O)N1C [PP1315] | 9.47 |  | 
2 | CCO[C@@H]1C[C@H]2C(=O)NC3(CCC3)C(=O)N(C)[C@@H](C(CC)CC)C(=O)N(C)C(C(C)C)CC(=O)N(C)[C@@H](CC)C(=O)N[C@@H]([C@@H](C)CC)C(=O)N(C)CC(=O)N(C)[C@H]3C/C=C\CCN(C3=O)[C@@H](Cc3ccc(C(F)(F)F)cc3)C(=O)N(C)CC(=O)N[C@@H](CCc3cc(F)c(C(F)(F)F)c(F)c3)C(=O)N2C1 (stereo partly shown) [PP1589] | 8.74 |  | 
3 | CC[C@H](C)[C@@H]1NC(=O)[C@@H]2CCCCc3ccc(cc3)C[C@@H](C(=O)N(C)CC(=O)N[C@@H](CCc3ccc(C(F)(F)F)c(OC)c3)C(=O)N3CC4(CC4)C[C@H]3C(=O)NC3(CC(C)(C)C3)C(=O)N(C)[C@@H](C3CCCC3)C(=O)N(C)[C@H](C(=O)N(C)CC)CC(=O)N2C)N2CC/C=C\C[C@@H](C2=O)N(C)C(=O)CN(C)C1=O [PP3081] |  | 10.17 | 
4 | CCO[C@@H]1C[C@H]2C(=O)NC3(CCC3)C(=O)N(C)[C@@H](C(CC)CC)C(=O)N(C)C(C(C)C)CC(=O)N(C)[C@@H](CC3CC3)C(=O)N[C@@H]([C@@H](C)CC)C(=O)N(C)CC(=O)N(C)[C@H]3C/C=C\CCN(C3=O)[C@@H](Cc3ccc(C(F)(F)F)cc3)C(=O)N(C)CC(=O)N[C@@H](CCc3cc(F)c(C(F)(F)F)c(F)c3)C(=O)N2C1 (stereo partly shown) [PP1595] | 8.64 |  | 
5 | CCCN1C(=O)CN(C)C(=O)CN(C)C(=O)[C@H]([C@@H](C)CC)NC(=O)[C@H](CC(C)C)N(C)C(=O)C[C@@H](C(=O)N2C3CCC2COC3)N(C)C(=O)[C@H](C2CCCC2)N(C)C(=O)C2(CCCC2)NC(=O)[C@@H]2CCCN2C(=O)[C@H](CCc2ccc(C(F)(F)F)c(Cl)c2)NC(=O)CN(C)C(=O)[C@@H]1Cc1ccc(C(F)(F)F)cc1 [PP0173] ([NMeL]I[Sar][Sar][NPrPhe(4-CF3)][Sar][hPhe(3-Cl-4-CF3)]P[Ac5c][NMeGly(cPent)][NMeD]-{3Oxa8azabicyclo(3.2.1)octane}; lactam N-11) |  | 9.17 | 
6 | CCC(CC)[C@H]1C(=O)N(C)[C@H](C(=O)N(C)C)CC(=O)N(C)[C@@H](COC)C(=O)N[C@@H]([C@@H](C)CC)C(=O)N(C)CC(=O)N(C)[C@H]2C/C=C\CCN(C2=O)[C@@H](Cc2ccc(C(F)(F)F)cc2)C(=O)N(C)CC(=O)N[C@@H](CCc2ccc(Cl)c(Cl)c2)C(=O)N2CCCCC[C@H]2C(=O)NC2(CC(C)(C)C2)C(=O)N1C [PP2972] |  | 8.85 | 
7 | CCO[C@@H]1C[C@H]2C(=O)NC3(CC(F)(F)C3)C(=O)N(C)[C@@H](C3CCCC3)C(=O)N(C)C(C(C)C)CC(=O)N(C)[C@@H](CC3CC3)C(=O)N[C@@H]([C@@H](C)CC)C(=O)N(C)CC(=O)N(C)[C@H]3C/C=C\CCN(C3=O)[C@@H](Cc3ccc(C(F)(F)F)cc3)C(=O)N(C)CC(=O)N[C@@H](CCc3cc(F)c(C(F)(F)F)c(F)c3)C(=O)N2C1 (stereo partly shown) [PP1598] | 9.12 |  | 
8 | CCC(CC)[C@H]1C(=O)N(C)[C@H](C(=O)N(C)C)CC(=O)N(C)[C@@H](COC)C(=O)N[C@@H]([C@@H](C)CC)C(=O)N(C)CC(=O)N(C)[C@H]2C/C=C\CCN(C2=O)[C@@H](Cc2ccc(C(F)(F)F)cc2)C(=O)N(C)CC(=O)N[C@@H](CCc2cc(F)c(C(F)(F)F)c(F)c2)C(=O)N2CCCCC[C@H]2C(=O)NC2(CC(C)(C)C2)C(=O)N1C [PP3030] |  | 9.51 | 
9 | CCO[C@@H]1C[C@H]2C(=O)NC3(CCC3)C(=O)N(C)[C@@H](C3CCCC3)C(=O)N(C)[C@H](C(=O)N3CCOCC3)CC(=O)N(C)[C@@H](CC(C)C)C(=O)N[C@@H]([C@@H](C)CC)C(=O)N(C)CC(=O)N(C)[C@H]3CCCCCN(C3=O)[C@@H](Cc3ccc4ccsc4c3)C(=O)N(C)CC(=O)N[C@@H](CCc3cc(F)c(C(F)(F)F)c(F)c3)C(=O)N2C1 [PP0921] |  |  | pKd (Single Cycle Kinetics): 8.59
10 | CCO[C@@H]1C[C@H]2C(=O)NC3(CC(F)(F)C3)C(=O)N(C)[C@@H](C(CC)CC)C(=O)N(C)C(C(C)C)CC(=O)N(C)[C@@H](CC)C(=O)N[C@@H]([C@@H](C)CC)C(=O)N(C)CC(=O)N(C)[C@H]3C/C=C\CCN(C3=O)[C@@H](Cc3ccc(C(F)(F)F)cc3)C(=O)N(C)CC(=O)N[C@@H](CCc3cc(F)c(C(F)(F)F)c(F)c3)C(=O)N2C1 (stereo partly shown) [PP1591] | 8.34 |  | 
